Hit rate of the full screen: of about 310,000 compounds, about 2,200 (0.71%) showed an effect of 50% or more. The effect is printed as a negative number. The list shows a part of the results.
target: human ether-à-go-go-related gene (hERG) potassium channel (human, UniProt Q12809); experiment: primary screen, population patch clamp on CHO cells stably expressing hERG
Sequence (Q12809 whole entry, looked up): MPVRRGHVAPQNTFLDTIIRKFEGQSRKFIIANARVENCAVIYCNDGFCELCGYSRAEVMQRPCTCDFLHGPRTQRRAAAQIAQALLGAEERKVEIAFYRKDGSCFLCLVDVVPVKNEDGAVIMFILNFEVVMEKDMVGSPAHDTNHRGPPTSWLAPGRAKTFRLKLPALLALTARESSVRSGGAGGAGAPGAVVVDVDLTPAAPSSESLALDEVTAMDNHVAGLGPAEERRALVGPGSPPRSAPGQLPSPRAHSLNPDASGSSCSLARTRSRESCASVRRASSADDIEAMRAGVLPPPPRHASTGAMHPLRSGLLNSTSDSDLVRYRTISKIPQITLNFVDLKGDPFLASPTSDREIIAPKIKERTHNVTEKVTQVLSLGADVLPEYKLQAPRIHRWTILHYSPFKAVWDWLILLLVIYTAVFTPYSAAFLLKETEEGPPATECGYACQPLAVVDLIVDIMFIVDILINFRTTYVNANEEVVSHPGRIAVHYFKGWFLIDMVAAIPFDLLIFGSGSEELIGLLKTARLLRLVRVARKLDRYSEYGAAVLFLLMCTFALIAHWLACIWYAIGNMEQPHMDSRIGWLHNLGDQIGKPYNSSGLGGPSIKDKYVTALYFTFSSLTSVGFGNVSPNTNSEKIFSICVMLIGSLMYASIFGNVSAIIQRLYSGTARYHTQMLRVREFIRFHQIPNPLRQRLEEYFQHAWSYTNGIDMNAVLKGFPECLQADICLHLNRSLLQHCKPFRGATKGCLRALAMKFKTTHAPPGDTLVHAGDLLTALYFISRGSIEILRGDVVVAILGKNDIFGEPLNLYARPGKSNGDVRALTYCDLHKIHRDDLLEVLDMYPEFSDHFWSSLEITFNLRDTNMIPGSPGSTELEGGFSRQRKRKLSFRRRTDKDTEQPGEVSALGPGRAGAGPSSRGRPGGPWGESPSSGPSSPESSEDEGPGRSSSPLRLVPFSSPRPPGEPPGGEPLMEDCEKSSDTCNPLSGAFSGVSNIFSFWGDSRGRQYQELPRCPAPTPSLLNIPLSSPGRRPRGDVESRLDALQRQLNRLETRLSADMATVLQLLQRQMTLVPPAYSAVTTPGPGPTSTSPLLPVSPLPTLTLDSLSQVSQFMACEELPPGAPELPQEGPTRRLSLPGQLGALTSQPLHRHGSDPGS

Compound | hERG current change (%, negative = inhibition) at 1uM
CC1CCN(Cc2cc(=O)oc3cc(O)c(Cl)cc23)CC1 | 12.4%
Cc1cc(C(F)F)nn1CC(=O)NC1CCCC1 | 14.3%
CO/N=C/C(=N\Nc1ccc(C)cc1)C(=O)c1ccc(OC)cc1 | 18.8%
O=C(Oc1ccc(C(=S)N2CCOCC2)cc1)c1cccc(Cl)c1 | 17%
CCN1CCN(C(c2cccs2)C(C)NS(=O)(=O)c2ccc(Br)cc2)CC1 (centres unmarked) | -18.7%
O=C(CSc1nc2c(sc3ccccc32)c(=O)n1CCCN1CCOCC1)NCC1CCCO1 (centres unmarked) | 2.38%
CNc1nc(SCc2ccc(C)cc2)nc2c1CCCC2 | 9.95%
Cc1cc(C)n2nc(S(=O)(=O)NC(C)(C)C)nc2n1 | 11.7%
CN(C(=O)CSc1nnn(C)n1)c1ccccc1 | 10.9%
O=C(O)CC(c1ccc(C(F)(F)F)cc1)N1Cc2ccccc2C1=O (centres unmarked) | 12.2%
COCCN(C(=O)CNC(=O)c1ccco1)C(C(=O)NC1CCCC1)c1ccc(OC)c(OC)c1 (centres unmarked) | 4.84%
Cc1occc1C(=O)Nc1sc2c(c1C(N)=O)CCCCC2 | 11.2%
CCN(CC(=O)Nc1ccc(NC(C)=O)cc1)C(=O)C1CCC1 | 7.45%
C=CCn1c(O)c(C=NCCN2CCOCC2)c(=O)[nH]c1=S | 11%
COc1ccc(/C=N/NC(=O)CNc2n[nH]c(=O)[nH]c2=O)cc1OC | 11.8%
CC1CCc2c(sc(NC(=O)C3CCCO3)c2C#N)C1 (centres unmarked) | 12.2%
COc1ccc(-c2ccc3c(c2)c(-c2cccs2)c(-c2cc(OC)cc(OC)c2)n3C)cc1 | 17.3%
O=C(Nc1cccc(Cl)c1)Nc1nc(-c2ccccc2)cs1 | 11.6%
CCOC(=O)c1nnn(CC(=O)N2N=C(c3cccc4ccccc34)CC2c2ccccc2)c1C(=O)OCC (centres unmarked) | -6.65%
CC(C)(C)c1ccc(NC(=O)COC(=O)C2(C)CC2(Cl)Cl)cc1 (centres unmarked) | 13.1%
CSc1ccc(CNCCCN(C)C)cc1.Cl | 0.528%
Cc1ccc(F)cc1NC(=O)N1c2ccccc2NC(=O)CC1C (centres unmarked) | 10.4%

Compound | hERG current change (%, negative = inhibition) at 1uM
Cc1cccc(C(=O)Oc2ccc(/C=N/NC(=O)c3ccncc3)cc2)c1 | 0.148%
Cc1ncc([N+](=O)[O-])n1CC(=O)Nc1ccc(F)c(Cl)c1 | 10.7%
COc1ccc(C2C(C#N)=C(N)N(c3cccnc3)C3=C2C(=O)CCC3)cc1Cn1cc([N+](=O)[O-])cn1 (centres unmarked) | 5.05%
COc1ccc(CNC(=O)CN(Cc2ccco2)C(=O)CNS(=O)(=O)c2ccc(C)cc2)cc1 | -37.9%
Br.CCCCCCCCn1ccc(=N)cc1 | -1.09%
Cc1ccc(CNC(=O)CCc2c(C)nn(-c3ccc(N4CCOCC4)nn3)c2C)cc1 | 12.5%
COc1ccc2cc3cc(C(=O)NCc4ccccn4)oc3nc2c1 | 10.7%
COc1ccc(C(=O)NNC(=O)C2CC=CCC2)cc1 (centres unmarked) | 13.4%
CCN(C(=O)CN1CCCCC1)C1(C)C(=O)c2ccccc2C1=O | 16.7%
Cn1ccnc1SCc1nc2c(cnn2-c2ccccc2)c(=O)[nH]1 | 6%
Cc1nn(-c2ccc(F)cc2)c2nc(N)c(C#N)c(-c3cccs3)c12 | 15.4%
O=C1c2c(Br)c(Br)c(Br)c(Br)c2C(=O)N1c1ccccn1 | 13.4%
O=C(Nc1ccccc1)c1cccc(S(=O)(=O)NC2CCCC2)c1 | 10.4%
COC(=O)N/N=C(C)/C=C/c1ccccc1 | 10.2%
Nc1nc(-c2ccco2)nn1C(=O)c1ccc(Cl)cc1 | 10.2%
CCc1cc(Cn2nc(-c3ccccc3)cc2C(=O)O)on1 | 8.24%
CCCC(=O)c1cc(F)c(N2CCOCC2)cc1C | -0.637%
Cc1ccccc1C(=O)Nc1sc(C)c(C)c1C(=O)c1ccccc1 | 22.1%
S=c1[nH]nc(COc2ccccc2)n1/N=C/c1cccnc1 | 8.46%
CC(C)(O)CNC(=O)Nc1ccc(Cl)c(Cl)c1 | 12.9%
O=C(NCc1cccs1)c1ccc(CS(=O)Cc2ccccc2Cl)o1 (centres unmarked) | 13.3%
CC(=O)Nc1ccc(SCCN2CC[C@@H](C)CCC2=O)cc1 | 8.01%
